# Patent publication US20230143604A1, “QW DOSING OF GIP RECEPTOR AGONIST PEPTIDE COMPOUNDS AND USES THEREOF” (TAKEDA PHARMACEUTICAL COMPANY LIMITED, priority 2020, published 2023)
# pEC50: −log10 of the molar value. Part of at least one peptide drawing is inferred or uncertain, most often the ends. Starred links: 1 amine or outer side, 2 acyl side, 3 side chain; linkers in the order of their positions; H or OH if unused. Non-standard residues stand in square brackets, D forms with d. Residues, ends and D or L forms follow the SMILES beside them. Groups on a side chain read outwards from the residue. *: point of attachment. C18 diacid = O=C(O)CCCCCCCCCCCCCCCCC(=O)*; γGlu = O=C(O)[C@H](CCC(=O)[*:2])N[*:1]; NMeY = CN[C@@H](Cc1ccc(O)cc1)C(=O)O; AEEA = NCCOCCOCC(=O)O; Aib = CC(C)(N)C(=O)O
# Target: T1, human GLP-1R (Homo sapiens, UniProt P43220)
# T1 construct: HEK-293T cells overexpressing full-length human GLP-1R; FLAG (N); host or cells: HEK-293T
# Experiment: Human GLP1R agonist activity, intracellular cAMP accumulation
# Format: cell-based
# Conditions: HEK-293T cells overexpressing human GLP-1R, 1 hr, read-out: Human GLP1R cAMP EC50, HEK293T
# Summary of the method: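 cAMP accumulation is measured by HTRF after a 1 hr, room-temperature, dark exposure of thawed cells (4×10^5 cells/mL in Krebs Ringer buffer) to compound. Activity is scaled between DMSO alone as 0% and 1 nm GLP-1 as 100%.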
# T1 sequence (P43220 24-463): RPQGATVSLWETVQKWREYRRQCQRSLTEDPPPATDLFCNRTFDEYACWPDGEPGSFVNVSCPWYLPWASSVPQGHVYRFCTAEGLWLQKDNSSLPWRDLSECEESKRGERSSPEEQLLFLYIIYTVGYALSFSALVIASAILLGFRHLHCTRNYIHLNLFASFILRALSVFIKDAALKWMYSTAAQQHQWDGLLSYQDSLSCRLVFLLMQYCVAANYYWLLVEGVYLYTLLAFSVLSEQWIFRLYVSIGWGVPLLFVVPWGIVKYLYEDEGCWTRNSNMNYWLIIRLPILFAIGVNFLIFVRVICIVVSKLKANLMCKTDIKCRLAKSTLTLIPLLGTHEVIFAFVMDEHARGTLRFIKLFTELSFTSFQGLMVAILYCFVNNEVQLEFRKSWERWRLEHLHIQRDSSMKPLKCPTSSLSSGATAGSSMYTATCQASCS
row,SMILES,pEC50
1,CC[C@H](C)[C@H](NC(=O)[C@H](CCCCN)NC(=O)[C@H](CC(=O)O)NC(=O)[C@H](CC(C)C)NC(=O)[C@H](C)NC(=O)[C@@H](NC(=O)[C@H](CO)NC(=O)[C@H](Cc1ccc(O)cc1)NC(=O)[C@H](CC(=O)O)NC(=O)[C@H](CO)NC(=O)[C@@H](NC(=O)[C@H](Cc1ccccc1)NC(=O)[C@@H](NC(=O)CNC(=O)[C@H](CCC(=O)O)NC(=O)C(C)(C)NC(=O)[C@H](Cc1ccc(O)cc1)NC)[C@@H](C)O)[C@@H](C)CC)[C@@H](C)CC)C(=O)N[C@@H](C)C(=O)N[C@@H](CCC(N)=O)C(=O)NC(C)(C)C(=O)N[C@@H](CCCCNC(=O)COCCOCCNC(=O)COCCOCCNC(=O)CC[C@H](NC(=O)CC[C@H](NC(=O)CCCCCCCCCCCCCCCCC(=O)O)C(=O)O)C(=O)O)C(=O)N[C@@H](Cc1ccccc1)C(=O)N[C@H](C(=O)N[C@@H](CCC(=O)O)C(=O)N[C@@H](Cc1c[nH]c2ccccc12)C(=O)N[C@@H](CC(C)C)C(=O)N[C@@H](CC(C)C)C(=O)N[C@@H](C)C(=O)N[C@@H](CCC(N)=O)C(=O)N[C@@H](CCCNC(=N)N)C(=O)NCC(=O)O)C(C)C [Compound 173] (H-[NMeY][Aib]EGTFISDYSIALDKIAQ[Aib]K([AEEA-AEEA-γGlu-γGlu-C18 diacid])FVEWLLAQRG-OH),6.98
2,CC[C@H](C)[C@H](NC(=O)[C@H](CCCCN)NC(=O)[C@H](CC(=O)O)NC(=O)[C@H](CC(C)C)NC(=O)[C@H](C)NC(=O)[C@@H](NC(=O)[C@H](CO)NC(=O)[C@H](Cc1ccc(O)cc1)NC(=O)[C@H](CC(=O)O)NC(=O)[C@H](CO)NC(=O)[C@@H](NC(=O)[C@H](Cc1ccccc1)NC(=O)[C@@H](NC(=O)CNC(=O)[C@H](CCC(=O)O)NC(=O)C(C)(C)NC(=O)[C@H](Cc1ccc(O)cc1)NC)[C@@H](C)O)[C@@H](C)CC)[C@@H](C)CC)C(=O)N[C@@H](C)C(=O)N[C@@H](CCC(N)=O)C(=O)NC(C)(C)C(=O)N[C@@H](CCCCNC(=O)COCCOCCNC(=O)COCCOCCNC(=O)CC[C@H](NC(=O)CC[C@H](NC(=O)CCCCCCCCCCCCCCCCC(=O)O)C(=O)O)C(=O)O)C(=O)N[C@@H](Cc1ccccc1)C(=O)N[C@H](C(=O)N[C@@H](CC(N)=O)C(=O)N[C@@H](Cc1c[nH]c2ccccc12)C(=O)N[C@@H](CC(C)C)C(=O)N[C@@H](CC(C)C)C(=O)N[C@@H](C)C(=O)N[C@@H](CCC(N)=O)C(=O)N[C@@H](CCCNC(=N)N)C(=O)NCC(=O)O)C(C)C [Compound 175] (H-[NMeY][Aib]EGTFISDYSIALDKIAQ[Aib]K([AEEA-AEEA-γGlu-γGlu-C18 diacid])FVNWLLAQRG-OH),7.23
3,CC[C@H](C)[C@H](NC(=O)[C@H](Cc1ccccc1)NC(=O)[C@@H](NC(=O)CNC(=O)[C@H](CCC(=O)O)NC(=O)C(C)(C)NC(=O)[C@H](Cc1ccc(O)cc1)NC)[C@@H](C)O)C(=O)N[C@@H](CO)C(=O)N[C@@H](CC(=O)O)C(=O)N[C@@H](Cc1ccc(O)cc1)C(=O)N[C@@H](CO)C(=O)N[C@H](C(=O)NC(C)(C)C(=O)N[C@@H](CC(C)C)C(=O)N[C@@H](CC(=O)O)C(=O)N[C@@H](CCCNC(=N)N)C(=O)N[C@@H](C)C(=O)N[C@@H](C)C(=O)N[C@@H](CCC(N)=O)C(=O)NC(C)(C)C(=O)N[C@@H](CCCCNC(=O)COCCOCCNC(=O)COCCOCCNC(=O)CC[C@H](NC(=O)CC[C@H](NC(=O)CCCCCCCCCCCCCCCCC(=O)O)C(=O)O)C(=O)O)C(=O)N[C@@H](Cc1ccccc1)C(=O)N[C@H](C(=O)N[C@@H](CC(N)=O)C(=O)N[C@@H](Cc1c[nH]c2ccccc12)C(=O)N[C@@H](CC(C)C)C(=O)N[C@@H](CC(C)C)C(=O)N[C@@H](C)C(=O)N[C@@H](CCC(N)=O)C(=O)N[C@@H](CCCNC(=N)N)C(=O)NCC(=O)O)C(C)C)[C@@H](C)CC [Compound 214] (H-[NMeY][Aib]EGTFISDYSI[Aib]LDRAAQ[Aib]K([AEEA-AEEA-γGlu-γGlu-C18 diacid])FVNWLLAQRG-OH),7.54
4,CC[C@H](C)[C@H](NC(=O)[C@H](CO)NC(=O)[C@H](Cc1ccc(O)cc1)NC(=O)[C@H](CC(=O)O)NC(=O)[C@H](CO)NC(=O)[C@@H](NC(=O)[C@H](Cc1ccccc1)NC(=O)[C@@H](NC(=O)CNC(=O)[C@H](CCC(=O)O)NC(=O)C(C)(C)NC(=O)[C@H](Cc1ccc(O)cc1)NC)[C@@H](C)O)[C@@H](C)CC)C(=O)N[C@@H](C)C(=O)N[C@@H](CC(C)C)C(=O)N[C@@H](CC(=O)O)C(=O)N[C@@H](CCCNC(=N)N)C(=O)NC(C)(C)C(=O)N[C@@H](CCCCNC(=O)COCCOCCNC(=O)COCCOCCNC(=O)CC[C@H](NC(=O)CC[C@H](NC(=O)CCCCCCCCCCCCCCCCC(=O)O)C(=O)O)C(=O)O)C(=O)N[C@@H](CCC(N)=O)C(=O)NC(C)(C)C(=O)N[C@@H](CC(N)=O)C(=O)N[C@@H](Cc1ccccc1)C(=O)N[C@H](C(=O)N[C@@H](CC(N)=O)C(=O)N[C@@H](Cc1c[nH]c2ccccc12)C(=O)N[C@@H](CC(C)C)C(=O)N[C@@H](CC(C)C)C(=O)N[C@@H](C)C(=O)N[C@@H](CCC(N)=O)C(=O)N[C@@H](CO)C(=O)NCC(=O)O)C(C)C [Compound 46] (H-[NMeY][Aib]EGTFISDYSIALDR[Aib]K([AEEA-AEEA-γGlu-γGlu-C18 diacid])Q[Aib]NFVNWLLAQSG-OH),6.98
5,CC[C@H](C)[C@H](NC(=O)[C@H](Cc1ccccc1)NC(=O)[C@@H](NC(=O)CNC(=O)[C@H](CCC(=O)O)NC(=O)CNC(=O)[C@H](Cc1ccc(O)cc1)NC)[C@@H](C)O)C(=O)N[C@@H](CO)C(=O)N[C@@H](CC(=O)O)C(=O)N[C@@H](Cc1ccc(O)cc1)C(=O)N[C@@H](CO)C(=O)N[C@H](C(=O)NC(C)(C)C(=O)N[C@@H](CC(C)C)C(=O)N[C@@H](CC(=O)O)C(=O)N[C@@H](CCCNC(=N)N)C(=O)NC(C)(C)C(=O)N[C@@H](C)C(=O)N[C@@H](CCC(N)=O)C(=O)NC(C)(C)C(=O)N[C@@H](CCCCNC(=O)COCCOCCNC(=O)COCCOCCNC(=O)CC[C@H](NC(=O)CC[C@H](NC(=O)CCCCCCCCCCCCCCCCC(=O)O)C(=O)O)C(=O)O)C(=O)N[C@@H](Cc1ccccc1)C(=O)N[C@H](C(=O)N[C@@H](CC(N)=O)C(=O)N[C@@H](Cc1c[nH]c2ccccc12)C(=O)N[C@@H](CC(C)C)C(=O)N[C@@H](CC(C)C)C(=O)N[C@@H](C)C(=O)N[C@@H](CCC(N)=O)C(=O)N[C@@H](CCCNC(=N)N)C(=O)NCC(=O)O)C(C)C)[C@@H](C)CC [Compound 205] (H-[NMeY]GEGTFISDYSI[Aib]LDR[Aib]AQ[Aib]K([AEEA-AEEA-γGlu-γGlu-C18 diacid])FVNWLLAQRG-OH),7.48

# Same assay, conditions: read-out: Human GLP1R cAMP EC50, HEK293T, HEK-293T cells overexpressing human GLP-1R, 1 hr
row,SMILES,pEC50
1,CC[C@H](C)[C@H](NC(=O)[C@H](CO)NC(=O)[C@H](Cc1ccc(O)cc1)NC(=O)[C@H](CC(=O)O)NC(=O)[C@H](CO)NC(=O)[C@@H](NC(=O)[C@H](Cc1ccccc1)NC(=O)[C@@H](NC(=O)CNC(=O)[C@H](CCC(=O)O)NC(=O)C(C)(C)NC(=O)[C@H](Cc1ccc(O)cc1)NC)[C@@H](C)O)[C@@H](C)CC)C(=O)N[C@@H](C)C(=O)N[C@@H](CCCCNC(=O)CNC(=O)CNC(=O)CNC(=O)CNC(=O)CNC(=O)CC[C@H](NC(=O)CCCCCCCCCCCCCCCC(=O)O)C(=O)O)C(=O)N[C@@H](CC(=O)O)C(=O)N[C@@H](CCCNC(=N)N)C(=O)NC(C)(C)C(=O)N[C@@H](C)C(=O)N[C@@H](CCC(N)=O)C(=O)NC(C)(C)C(=O)N[C@@H](CC(=O)O)C(=O)N[C@@H](Cc1ccccc1)C(=O)N[C@H](C(=O)N[C@@H](CC(N)=O)C(=O)N[C@@H](Cc1c[nH]c2ccccc12)C(=O)N[C@@H](CC(C)C)C(=O)N[C@@H](CC(C)C)C(=O)N[C@@H](C)C(=O)N[C@@H](CCC(N)=O)C(=O)N[C@@H](CCCNC(=N)N)C(=O)N1CCC[C@H]1C(=O)N[C@@H](CO)C(=O)N[C@@H](CO)C(=O)NCC(=O)N[C@@H](C)C(=O)N1CCC[C@H]1C(=O)N1CCC[C@H]1C(=O)N1CCC[C@H]1C(=O)N[C@@H](CO)C(N)=O)C(C)C [Compound 22],6.28
2,CC[C@H](C)[C@H](NC(=O)[C@H](Cc1ccccc1)NC(=O)[C@@H](NC(=O)CNC(=O)[C@H](CCC(=O)O)NC(=O)C(C)(C)NC(=O)[C@H](Cc1ccc(O)cc1)NC)[C@@H](C)O)C(=O)N[C@@H](CO)C(=O)N[C@@H](CC(=O)O)C(=O)N[C@@H](Cc1ccc(O)cc1)C(=O)N[C@@H](CO)C(=O)N[C@H](C(=O)NC(C)(C)C(=O)N[C@@H](CC(C)C)C(=O)N[C@@H](CC(=O)O)C(=O)N[C@@H](CCCNC(=N)N)C(=O)NC(C)(C)C(=O)N[C@@H](C)C(=O)N[C@@H](CCC(N)=O)C(=O)NC(C)(C)C(=O)N[C@@H](CCCCNC(=O)COCCOCCNC(=O)CC[C@H](NC(=O)COCCOCCNC(=O)CC[C@H](NC(=O)CCCCCCCCCCCCCCCCC(=O)O)C(=O)O)C(=O)O)C(=O)N[C@@H](Cc1ccccc1)C(=O)N[C@H](C(=O)N[C@@H](CC(N)=O)C(=O)N[C@@H](Cc1c[nH]c2ccccc12)C(=O)N[C@@H](CC(C)C)C(=O)N[C@@H](CC(C)C)C(=O)N[C@@H](C)C(=O)N[C@@H](CCC(N)=O)C(=O)N[C@@H](CO)C(=O)N1CCC[C@H]1C(=O)N[C@@H](CO)C(=O)N[C@@H](CO)C(=O)NCC(=O)N[C@@H](C)C(=O)N1CCC[C@H]1C(=O)N1CCC[C@H]1C(=O)N1CCC[C@H]1C(=O)N[C@@H](CO)C(N)=O)C(C)C)[C@@H](C)CC [Compound 92] (H-[NMeY][Aib]EGTFISDYSI[Aib]LDR[Aib]AQ[Aib]K([AEEA-γGlu-AEEA-γGlu-C18 diacid])FVNWLLAQSPSSGAPPPS-NH2),7.44
